# In PubChem BioAssay AID1745853 (National Center for Advancing Translational Sciences (NCATS), 2022):
# Some of the results follow. The main result of the screen is listed elsewhere. These columns were measured beside it and carry no call.
# What was measured:
# Experiment in all cases: Primary Screen for Target Class Profiling of Small Molecule Inhibitors of Methyltransferases
# [1] = target: Glycine N-methyltransferase (Homo sapiens) (UniProt Q14749); settings: purified enzyme, MTase-Glo SAH luminescence; measured here: GNMT inhibition; at 40 µM; stronger effect = lower value
# Method in brief: (§1)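 Each enzyme was reacted with SAM and its substrate, with compounds tested once at 40 uM; SAH formed was read by MTase-Glo luminescence.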
# [2] = target: Guanidinoacetate N-methyltransferase (Homo sapiens) (UniProt Q14353); settings: purified enzyme, MTase-Glo SAH luminescence; measured here: GAMT inhibition; at 40 µM; stronger effect = lower value
# Method in brief: as §1
# [3] = target: Histamine N-methyltransferase (Homo sapiens) (UniProt P50135); settings: purified enzyme, MTase-Glo SAH luminescence; measured here: HNMT inhibition; at 40 µM; stronger effect = lower value
# Method in brief: as §1
# [4] = target: Nicotinamide N-methyltransferase (Homo sapiens) (UniProt P40261); settings: purified enzyme, MTase-Glo SAH luminescence; measured here: NNMT inhibition; at 40 µM; stronger effect = lower value
# Method in brief: as §1
# [5] = target: Phenylethanolamine N-methyltransferase (Homo sapiens) (UniProt P11086); settings: purified enzyme, MTase-Glo SAH luminescence; measured here: PNMT inhibition; at 40 µM; stronger effect = lower value
# Method in brief: as §1
# On the % scale 0 is the no-effect control and ±100 the full control effect.
SMILES,"activity change, negative = inhibition [1]","activity change, negative = inhibition [2]","activity change, negative = inhibition [3]","activity change, negative = inhibition [4]","activity change, negative = inhibition [5]"
CCc1ccc(N2CC(c3noc(C4(c5ccccc5)CC4)n3)CC2=O)cc1 (stereo not given),-3.17%,0.336%,-2.08%,-3.63%,7.97%
C=C1C(O[C@@H]2O[C@H](CO)[C@@H](O)[C@H](O)[C@@H]2O)CC2C(C)(C)C(O)CCC2(C)C1CC/C(C)=C\CO (stereo not given in full),-0.233%,1.33%,1.17%,-12.4%,4.93%
CCOc1ccc(NC(=O)CN(C)S(=O)(=O)c2ccc3[nH]c4c(c3c2)CCCC4)cc1,-6.8%,-1.98%,-4.69%,-11.2%,-0.772%
CCc1noc(-c2ccn3c(CNC(=O)c4ccc(C)c(F)c4)nnc3c2)n1,-4.74%,-3.58%,-1.39%,-9.99%,-6.18%
CCOCCCN1C(=O)c2ccc(-c3ccco3)n2CC1(C)C(=O)NC1CCCCCC1 (stereo not given),-0.154%,0%,5.18%,4.72%,1.05%
O=C(C[C@@H]1CCNC[C@@H]1Cc1cc(CN2CCOCC2)on1)N1CCN(c2ccc(F)cc2)CC1,-7.18%,-9.46%,-4.69%,-17.4%,-14.3%
Cc1noc(C2CCCCN2C(=O)c2ccoc2)n1 (stereo not given),2.71%,-7.58%,-1.57%,-10.9%,-7.27%
CC1CC(C)CN(S(=O)(=O)c2ccc3c(c2)oc(=O)n3CC(=O)NC(C)c2ccccc2)C1 (stereo not given),-7.03%,0%,5.87%,2.81%,0.401%
CN(c1ccccc1)c1cc(=O)c2ccnc(-c3cncnc3)c2o1,-7.99%,-4.33%,-10.7%,-12.5%,-2.99%
Cc1cc(CC(=O)N2C[C@@H](COCC3CC3)[C@H](c3ccncc3)C2)on1,0.329%,-8.34%,1.02%,-0.2%,1.13%
O=C(c1ccnc(-c2ccncc2)c1)N1CCCC1,-4.2%,-1.77%,-2.02%,-7.93%,-14.1%
CC(=O)N1CCN(C(=O)c2cn3cc(-c4ccc(F)cc4)sc3n2)CC1,-6.47%,-10.5%,-4.01%,-14.4%,-12.7%
CC(=O)[C@H]1CC[C@H]2[C@@H]3CCC4=CC(=O)CC[C@]4(C)[C@H]3CC[C@]12C,-1.6%,12.7%,6.03%,-15.3%,-0.229%
Cn1cc(CNCC2CCN(c3ncc(C(=O)NO)cn3)CC2)c2ccccc21,1.78%,–,-13.4%,0.79%,9.53%
C[N+]1(C)[C@@H]2CC[C@H]1CC(OC(=O)C(O)c1ccccc1)C2 (stereo not given in full),6.18%,6.29%,5.61%,-5.51%,5.34%
CNC(=O)CCn1ccc2cc(S(=O)(=O)N3CCCCC3)ccc21,5.16%,1.22%,3.25%,6.74%,2.42%

SMILES,"activity change, negative = inhibition [1]","activity change, negative = inhibition [2]","activity change, negative = inhibition [3]","activity change, negative = inhibition [4]","activity change, negative = inhibition [5]"
COCCNC(=O)c1ccc(-c2ccc(N3CCCCC3)nc2)cc1,-7.49%,-6.59%,-3.5%,-8.16%,-4.72%
CC(=O)N1CCN(c2ccc(OC[C@H]3CO[C@](Cn4ccnc4)(c4ccc(Cl)cc4Cl)O3)cc2)CC1,-3.6%,11.8%,-0.364%,-12%,3.74%
COCCCNC(=O)C1(C)Cn2nc(-c3ccccc3)cc2C(=O)N1Cc1ccc(Cl)cc1 (stereo not given),-5.39%,3.21%,-0.796%,-3.57%,-2.81%
CCc1ccc(CNC(=O)c2ccc3c(=O)nc4c(-c5ccccc5)n[nH]n4c3c2)cc1,-9.29%,0.671%,-2.84%,-10.9%,-5.23%
CCC(C)NC(=O)c1ccc2c(=O)n(C(C)C)c3nn(CC(=O)c4cc(C)ccc4C)c(=O)n3c2c1 (stereo not given),2.03%,0.561%,0.994%,-7.13%,-3.29%
CC1CC2C3CCC4=CC(=O)C=C[C@]4(C)[C@@]3(F)[C@@H](O)C[C@]2(C)[C@@]1(O)C(=O)CO (stereo not given in full),-5.54%,4.21%,-1.62%,-6.8%,2.36%
Oc1cccc(Nc2ccnc3[nH]c4ccccc4c23)c1,–,-0.867%,–,-76.3%,-11.8%
CC1(C(=O)NC2CCCCCC2)Cn2c(ccc2-c2ccco2)C(=O)N1CCCN1CCOCC1 (stereo not given),6.51%,3.1%,7.68%,9.18%,2.31%
COc1ccc(Cl)cc1[C@@]1(F)C(=O)Nc2cc(C(F)(F)F)ccc21,6.38%,6.4%,5.24%,-29.5%,-2.99%
Cc1noc(-c2cccc(OC3CN(C(=O)c4ccco4)C3)c2)n1,-3.76%,1.92%,-0.363%,-0.983%,17.1%
CC(C)(C)n1nc(Cc2cccc3ccccc23)c2c(N)ncnc21,–,2.06%,–,-42%,-20.2%
CC1CCCCC1NC(=O)C1(C)Cn2c(nc3ccccc32)C(=O)N1Cc1ccccc1Cl (stereo not given),-3.23%,3.99%,-5.68%,2%,-3.48%
CC(=O)N1CCc2[nH]cnc2C12CCN(C(=O)CCn1nnnc1C)CC2,1.58%,2.33%,1.81%,-2.65%,0.228%
CC1CCN(CC2CCCN(C(=O)COc3ccc(F)cc3)CC2)CC1 (stereo not given),-3.28%,-3.11%,-18.4%,-0.467%,8.6%
O=CN1CCCC(n2cnc3cccnc32)C1 (stereo not given),0.484%,-6.3%,2.66%,-5.01%,-1.07%
